According to the supplement of paper PMC11417369:
± gives the standard deviation of the averaged measurements. Some of the results follow.

The sequences below were run on PfAP2-I AP2 domain 3 (GST-tagged) (assay: gcPBM binding intensity (ln(normalized median fluorescence intensity)); higher = stronger DNA binding).
How it was run: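 The binding buffer was 1× PBS containing 1% milk, 0.2 mg/ml BSA, 0.5% salmon testes DNA and 0.03% Triton X-100. In it, GST-tagged P. falciparum DNA-binding domains expressed in E. coli were applied for 1 h to an Agilent 4 × 180k array of primer-extended double-stranded 36-bp intergenic genomic probes plus negative controls. Binding intensity, read with Alexa488 anti-GST antibody and a 488 nm scan, is the highest Masliner-normalised natural-log median intensity across replicate spots of either probe orientation.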

Sequence	gcPBM binding intensity (ln)
AAAAAAATAAGTATTGAACAATTAAGGAAAAACATG [GTGCAC_negctrl_site464]	8 ± 0.56
CTTATAAAAAAAAAAACATGCAACAGTAAAGAACAA [TGCATGCA_site892]	8.13 ± 0.85
CATACAGATATATATACACACATACAGATAAATACA [CACACA_site4592]	8.03 ± 0.042
GGAATAGTAATATATACACACAAATACAGATATATA [CACACA_site4213]	7.66 ± 0.43
AATTGAATTTTAAAAGAAAAAAAAAAAAAAAAATAA [XGTACX_negctrl_site195]	7.74 ± 0.32
TGGAGGTCAGTTCACAGTACCCAGAAACTCTACGGA [XGTACX_site4927]	7.47 ± 0.63
TTTTTTCAATTTTTTTTAAATAAACCACAAAAAAAA [CACACA_negctrl_site1701]	7.74 ± 0.49
AAACTATAATATATTACACACATATATTTTATAAGT [CACACA_site6460]	7.69 ± 0.44
TAATGTAAAATTTAGAGTACATAAAAAATTGGATGA [XGTACX_site7225]	7.82 ± 0.71
AAATAAAAAAAGAAACGTACATATATTGGTTTCGTC [XGTACX_site3510]	7.85 ± 0.54
AATAAATAAATATATACACACATATCTGTCTACATA [CACACA_site5708]	7.63 ± 0.53
AATAATTGAAAAACACAAAAATGATTTTCCATAAAT [CACACA_negctrl_site1555]	7.34 ± 0.69
GTAAAAAAATAGCACACACACAAAAACACGCACAAA [CACACA_site6723]	8.94 ± 0.071
GGGACAGGACGAAAAAATAAATAAATAAATAAAAAA [CACACA_negctrl_site155]	7.99 ± 0.44
ACAAGATCTAGATACACACACATATCTCTCAATCTA [CACACA_site6453]	7.88 ± 0.79
TTTTTATTTATATATATATATATATATTATATATAA [CACACA_negctrl_site1654]	7.68 ± 0.53
ATCTAAATAATATATATATATAATATTAATAATATA [CACACA_negctrl_site1620]	7.44 ± 0.44
ATATATTATATAATATGTACATAATAAAATTTAAAT [XGTACX_site1900]	7.82 ± 0.4
CTTGTCATTGGGCACACACACATGTATAGGTTATTA [CACACA_site3058]	8.54 ± 0.45
GAGTAAACATATATATGTACATAAAGTTAACATTGC [XGTACX_site2225]	8 ± 0.47
ATTTTTTTTCATATAACACACACACTAATATAATGT [CACACA_site9226]	8.22 ± 0.4
TGAACACCCACAAATACACACAAAAAAAATAAATAA [CACACA_site248]	7.86 ± 0.43

Sequence	gcPBM binding intensity (ln)
AATCAAAAATCAAACGCATGTAGTATAATAGATAAG [TGCATGCA_site753]	7.81 ± 0.71
CAAATATAAATATATACATGCATCTATCTATATAAA [TGCATGCA_site369]	8.28 ± 0.5
AAATTGTAGCACCAAGCATGCTAAAAGGACATATGA [TGCATGCA_site717]	9.67 ± 0.11
ATTGGGTACAAATACACACACATATATATATTAATA [CACACA_site2376]	8.09 ± 0.2
TGTACCTTATTAATATATTTAACTCGCCTTATATAC [XGTACX_negctrl_site289]	7.87 ± 0.74
TCGTAAACATATTGAAAAATATAAAAAGGGGTAATA [CACACA_negctrl_site619]	7.84 ± 0.45
TTGTTAAAAGTATCCATTCTTTATTACTTTTGTTTA [XGTACX_negctrl_site532]	7.46 ± 0.6
AAATAAATACACATATGTACATATTTTATTTTATTT [XGTACX_site2357]	7.7 ± 0.52
TAAAAAAAATACAAAAGTACACAAAATTATACGTTA [XGTACX_site4656]	7.71 ± 0.39
AATGGTATAATCAATACACACATAATATATATATTG [CACACA_site1658]	7.61 ± 0.47
TTAAGATATGTATATCGTACATGACATTAAAAATTT [XGTACX_site3352]	7.54 ± 0.55
AAAAAAAAAAATATCACACACACATAAATATAAACC [CACACA_site2278]	8.27 ± 0.46
AAATTATATCAATGTTGTACATATTATTTTTTTCTC [XGTACX_site5948]	7.85 ± 0.48
AAAAAAAAAAAAAGGTGTACAAGTATAATTACATAA [XGTACX_site534]	8.07 ± 0.38
TATTTATTGTGATACTTTTATTGTTTAATGATTAAA [CACACA_negctrl_site495]	7.47 ± 0.45
TAGTATAAAATTATGTGTACACAAATATAACTTTTC [XGTACX_site5971]	8.52 ± 0.47
AAGATTAAAAATTGCACACAAAAATATATTTTCTAT [CACACA_site1305]	8.44 ± 0.42
AATTTCCTTTTTTAAAGTACACAAAAGTTCACTTTG [XGTACX_site4460]	7.82 ± 0.67
AAATTATATCATTTATTTTTTTATATTTTTTATATT [CACACA_negctrl_site685]	7.42 ± 0.69
TATAATTTATTAAGGGGTACATATATTTCATGATAA [XGTACX_site5141]	7.88 ± 0.37
TTATTCATTTTTATTTGTACATAATTATATGAAATT [XGTACX_site6389]	7.71 ± 0.57
TTTTATATTTTATGCACACTTATAAGAAATATGTAC [CACACA_site3040]	10.5 ± 0.52
